The experiment has as its target T1, GFP-Dbp5 (S. cerevisiae) (UniProt P20449).
T1 sequence: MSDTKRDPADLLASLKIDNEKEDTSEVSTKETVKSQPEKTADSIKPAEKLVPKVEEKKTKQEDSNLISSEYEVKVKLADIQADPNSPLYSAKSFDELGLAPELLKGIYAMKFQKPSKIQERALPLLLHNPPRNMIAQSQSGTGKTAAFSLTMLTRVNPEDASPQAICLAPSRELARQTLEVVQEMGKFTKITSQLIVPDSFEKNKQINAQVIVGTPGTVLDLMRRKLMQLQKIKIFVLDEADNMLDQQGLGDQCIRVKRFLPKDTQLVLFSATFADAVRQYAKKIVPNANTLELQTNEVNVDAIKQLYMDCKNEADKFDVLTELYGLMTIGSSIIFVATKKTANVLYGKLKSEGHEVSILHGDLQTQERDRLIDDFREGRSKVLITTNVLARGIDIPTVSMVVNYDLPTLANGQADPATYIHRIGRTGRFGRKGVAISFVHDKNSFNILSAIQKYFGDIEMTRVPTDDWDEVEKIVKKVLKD
As to the kind of experiment: co-IP; GFP-tagged bait on GFP-Trap_A beads from clarified yeast lysate, PBSKMT (0.5% Triton-X 100), 3 h at 4°C, samples treated with 0.2 mg/ml RNase A for 30 min at 4°C; Western blot; in some panels wild type and dbp5 mutant cells after a 1 h temperature shift. For orientation: A western blot detects proteins with antibodies after separation by electrophoresis.

The chains behind the UniProt entries cited, without tags or fusion partners.
UniProt P40160: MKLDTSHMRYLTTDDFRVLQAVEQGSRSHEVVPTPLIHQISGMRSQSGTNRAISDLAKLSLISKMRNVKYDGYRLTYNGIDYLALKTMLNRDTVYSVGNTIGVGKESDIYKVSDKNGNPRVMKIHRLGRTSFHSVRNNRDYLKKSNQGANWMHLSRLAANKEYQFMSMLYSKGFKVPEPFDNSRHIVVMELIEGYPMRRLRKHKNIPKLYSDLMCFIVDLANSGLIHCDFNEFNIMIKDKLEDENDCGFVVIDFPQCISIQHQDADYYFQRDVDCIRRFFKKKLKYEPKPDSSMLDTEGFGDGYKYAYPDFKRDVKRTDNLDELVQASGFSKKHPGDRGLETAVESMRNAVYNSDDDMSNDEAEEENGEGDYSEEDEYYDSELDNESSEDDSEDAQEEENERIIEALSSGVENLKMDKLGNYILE

These are yes or no findings as the source states them, for the method shown. Binding seen in cells or lysates may run through a third protein. Some results given as binding are weak or reduced against the parent protein; the word gives no strength. Sequences can lack the tags named with a protein.

Take Rio2 (from UniProt P40160 1-425): the binding result was “binds”.
